# According to PubChem BioAssay AID624296 (National Center for Advancing Translational Sciences (NCATS), 2012):
# Among all 350,000 compounds or so, about 9,900 (2.8%) were called active. This list was built around the results that the source calls inconclusive (neither active nor inactive); the mix of calls is not that of the screen. Calls follow the shape of the dose curve; as a rule, active = well fitted activation curve with a large enough effect; inconclusive = small, poorly fitted or top-dose-only effect; inactive = no such curve, though single readings can be large or run the other way. Potencies of inconclusive entries are left out as doubtful fits.
# Test: A quantitative high throughput screen for small molecules that induce DNA re-replication in MCF 10a normal breast cells. Also: nearly all actives have a fitted effect of over 50% in size. As to activity, positive = re-replication: % of control where 0% means no effect.
# Conditions: MCF 10A DNA re-replication, Hoechst nuclear intensity, 48 h; activity, positive = re-replication: at 46.1 µM (top of the series)
# Potency is read from the fitted curve at half-maximal effect; tags tell the direction and shape of the fitted curve.
Structure (SMILES),Potency,"activity, positive = re-replication"
C=CCc1cc(Cl)ccc1OCCOCCNCCOC,"inconclusive [activator, single point]",–
CN1/C(=C/C(=O)COC(=O)C2COc3ccccc3O2)C(C)(C)c2ccccc21 (stereo not drawn),inactive,–
CC(C)CN(C(=O)c1cccc(Cl)c1)c1c(N)n(CC(C)C)c(=O)[nH]c1=O,inactive,–
CC(C)C[C@H](CO)N(Cc1ccccc1)S(=O)(=O)N(Cc1ccccc1)[C@@H](CO)CC(C)C,"inconclusive [activator, single point]",–
CSc1ccc(/C=N/NC(=O)CNc2cccc3ccccc23)cc1,"inconclusive [activator, single point]",–
COc1ccc(C(CNC(=O)c2cc3c(s2)CCC(C)C3)N2CCOCC2)cc1 (stereo not drawn),"inconclusive [activator, partial curve, poor fit]",–
N#Cc1ccsc1NC(=O)c1cccc([N+](=O)[O-])c1,inactive,–
CCOc1ccc(C(=O)Nc2cnn(Cc3ccc(Cl)c(Cl)c3)c2)cc1,active: 0.651 µM,–
O=C(Nc1nc2ccccc2s1)c1cnccn1,active: 3.26 µM,–
Cc1nnc(Sc2nc3c(c(=O)n(C)c(=O)n3C)n2Cc2ccc(Cl)cc2)s1,–,inconclusive: 102% [activator]
CC1CC2(CCCC2)N(C(=O)c2ccccc2)Cc2ccccc21 (stereo not drawn),"inconclusive [activator, partial curve, poor fit]",–
CC(C)CNC(=O)c1ccccc1NC(=O)c1ccccc1N(C)S(=O)(=O)c1ccccc1,inactive,–
CCOc1ccc(Cn2c3ccc(OC)cc3c3nc4ccccc4nc32)cc1OC,active: 7.31 µM,–
Cc1ccc(S(=O)(=O)N(Cc2ccccc2F)C(=O)N2CCN(C)CC2)cc1,"inconclusive [activator, partial curve, poor fit]",–
Cc1cc2cc(C#N)c(NCCNC(=S)NCCCN3CCOCC3)nc2cc1C,active: 20.6 µM,–
CC(NC(=O)COc1ccc(N(C)S(=O)(=O)c2ccccc2)cc1)c1ccccc1 (stereo not drawn),inactive,–
CC(OC(=O)COc1ccc(Nc2ccccc2)cc1)C(=O)N(C)c1ccccc1 (stereo not drawn),inactive,–
CC(C)c1nnc(SCC(=O)NC2CCCCC2)n1C,inactive,–
Cc1cccc(CCN(CC(=O)NC2CCCCC2)C(=O)c2csnn2)c1,inactive,–
Nc1c(C(=O)Nc2cccc(Cl)c2Cl)sc2nc(-c3cccnc3)ccc12,active: 5.17 µM,–
COc1ccc(C2=CC(=O)C[C@H](c3ccc(Cl)cc3)C2)cc1,"inconclusive [activator, single point]",–
COc1ccc(CCNC(=S)NC(=O)c2cccc(Cl)c2)cc1OC,"inconclusive [activator, single point]",–
CC1CN(c2nc(-c3ccc(Br)cc3)nnc2-c2ccccc2)CC(C)N1 (stereo not drawn),inactive,–
Fc1c(F)c(F)c(/C=N/NC(=S)Nc2cccnc2)c(F)c1F,active: 11.2 µM,–

Structure (SMILES),Potency,"activity, positive = re-replication"
CC1CN(CCCCOc2ccc(Cl)c3ccccc23)CC(C)O1 (stereo not drawn),"inconclusive [activator, single point]",–
O=C(CSc1nc2ccccc2c(=O)n1Cc1ccco1)Nc1cccc(O)c1,"inconclusive [activator, partial curve, poor fit]",–
O=C1C=C(c2cccc(O)c2)CCC1,inactive,–
CCCCCc1cc(=O)oc2c(C(CCN3CCN(c4ccccc4)CC3)c3ccc4c(c3)OCO4)c(OC)cc(OC)c12 (stereo not drawn),"inconclusive [activator, single point]",–
COc1ccc(-c2sc3ccc(OC)cc3c2-c2ccc(OCCN3CCOCC3)cc2)cc1,"inconclusive [activator, partial curve, poor fit]",–
CCOc1ccc(/C=C/[N+](=O)[O-])c2ccccc12,active: 2.31 µM,–
COc1cc(-c2nnc(SCc3cc(=O)oc4cc(O)c(O)cc34)o2)cc(OC)c1OC,"inconclusive [activator, partial curve, poor fit]",–
Cc1ccc2nc3[nH]c(=O)[nH]c(=O)c3c(N)c2c1,"inconclusive [activator, single point]",–
Cc1ccc(CSc2nc3ccccc3c(=O)n2Cc2ccco2)cc1,"inconclusive [activator, single point]",–
CCN(CC)S(=O)(=O)c1ccc(NC(=O)c2ccc(Sc3nncn3C)c([N+](=O)[O-])c2)cc1,inactive,–
CCCCN(C(=O)c1[nH]c(C)c(C(=O)OCC)c1C)c1c(N)n(CCCC)c(=O)[nH]c1=O,inactive,–
COc1cc(OC)c(C(=O)/C=C/c2ccccc2)c(O)c1O,"inconclusive [activator, partial curve, poor fit]",–
COc1ccc(NC(=O)CN2CCN(Cc3ccccc3)CC2)cc1,inactive,–
O=C1Nc2ccccc2SC1c1ccccc1Cl (stereo not drawn),inactive,–
CN(Cc1ccccc1Cl)C(=O)C1CCC(=O)N(C2CCCCCC2)C1 (stereo not drawn),inactive,–
Cc1cccc(NS(=O)(=O)c2ccc(C)c(C(=O)NCc3ccncc3)c2)c1,inactive,–
COc1ccc(-c2csc(-c3[nH]cnc3N)n2)cc1,inactive,–
O=C1NC(c2ccc(Br)cc2)=N/C1=C/c1ccco1,"inconclusive [activator, single point]",–
O=C(NC1CCN(C(=O)N2c3ccccc3Sc3ccccc32)CC1)c1ccco1,"inconclusive [activator, single point]",–
Cn1c(=O)n(CC(=O)NCC2CCCO2)c(=O)c2c3c(sc21)COC(C)(C)C3 (stereo not drawn),inactive,–
CCC1OC(c2ccc([N+](=O)[O-])cc2)=Nc2ccccc21 (stereo not drawn),"inconclusive [activator, single point]",–
Cc1cc(C)c2c(N)c(C(=O)Nc3nccs3)sc2n1,"inconclusive [activator, partial curve]",–
CCOC(=O)CC1(c2ccc(OC)c(OC)c2)C(=O)c2ccccc2C1=O,"inconclusive [activator, single point]",–
CC[C@]12c3[nH]c4cc(CCC(=O)N(C)C)ccc4c3CCN1C(=O)[C@@H](CC(=O)NCCN1CCOCC1)C[C@@H]2C(=O)N1CCN(C(=O)c2ccco2)CC1,"inconclusive [activator, full curve, poor fit]",–
